Assay results from the supplement of paper PMC8728848.
Some of the results follow.

Tests used:
Assay in all cases: glycan array binding signal (z-score within array); higher = stronger binding
Details in all cases: glycan notation: IUPAC condensed, linker removed
Fuc(a1-2)Gal = target: Fuc(a1-2)Gal
Procedure, shortened: (§1)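 Glycan array data came from 3228 arrays in the Consortium for Functional Glycomics database, and only arrays with an available protein sequence were kept. Glycan names were put into IUPAC-condensed notation, and columns mapping to the same glycan were averaged. The binding signal is a within-array Z-score, averaged across arrays of one protein sequence run at different concentrations or buffers and across linkers. A negative Z-score can be read as non-binding.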

Fuc(a1-2)Gal(b1-3)GalNAc = target: Fuc(a1-2)Gal(b1-3)GalNAc
Procedure, shortened: as §1

[1] = target: Fuc(a1-2)Gal(b1-3)GalNAc(a1-3)[Fuc(a1-2)]Gal(b1-4)Glc
Procedure, shortened: as §1

[2] = target: Fuc(a1-2)Gal(b1-3)GalNAc(a1-3)[Fuc(a1-2)]Gal(b1-4)GlcNAc
Procedure, shortened: as §1

[3] = target: Fuc(a1-2)Gal(b1-3)GalNAc(b1-3)Gal
Procedure, shortened: as §1

[4] = target: Fuc(a1-2)Gal(b1-3)GalNAc(b1-3)Gal(a1-4)Gal(b1-4)Glc
Procedure, shortened: as §1

[5] = target: Fuc(a1-2)Gal(b1-3)GalNAc(b1-4)[Neu5Ac(a2-3)]Gal(b1-4)Glc
Procedure, shortened: as §1

Fuc(a1-2)Gal(b1-3)GlcNAc = target: Fuc(a1-2)Gal(b1-3)GlcNAc
Procedure, shortened: as §1

[6] = target: Fuc(a1-2)Gal(b1-3)GlcNAc(b1-2)Man(a1-3)[Fuc(a1-2)Gal(b1-3)GlcNAc(b1-2)Man(a1-6)]Man(b1-4)GlcNAc(b1-4)GlcNAc
Procedure, shortened: as §1

[7] = target: Fuc(a1-2)Gal(b1-3)GlcNAc(b1-2)Man(a1-3)[Fuc(a1-2)Gal(b1-3)GlcNAc(b1-2)Man(a1-6)]Man(b1-4)GlcNAc(b1-4)[Fuc(a1-6)]GlcNAc
Procedure, shortened: as §1

[8] = target: Fuc(a1-2)Gal(b1-3)GlcNAc(b1-3)Gal(b1-4)Glc
Procedure, shortened: as §1

[9] = target: Fuc(a1-2)Gal(b1-3)GlcNAc(b1-3)GalNAc
Procedure, shortened: as §1

[10] = target: Fuc(a1-2)Gal(b1-3)GlcNAc(b1-3)[Fuc(a1-2)Gal(b1-3)GlcNAc(b1-6)]GalNAc
Procedure, shortened: as §1

[11] = target: Fuc(a1-2)Gal(b1-3)GlcNAc(b1-3)[Gal(b1-4)GlcNAc(b1-6)]Gal(b1-4)Glc
Procedure, shortened: as §1

[12] = target: Fuc(a1-2)Gal(b1-3)GlcNAc(b1-3)[Neu5Ac(a2-6)Gal(b1-4)GlcNAc(b1-6)]Gal(b1-4)Glc
Procedure, shortened: as §1

[13] = target: Fuc(a1-2)Gal(b1-3)GlcNAc6S
Procedure, shortened: as §1

[14] = target: Fuc(a1-2)Gal(b1-3)[Fuc(a1-4)]GlcNAc
Procedure, shortened: as §1

[15] = target: Fuc(a1-2)Gal(b1-3)[Fuc(a1-4)]GlcNAc(b1-2)Man(a1-3)[Fuc(a1-2)Gal(b1-3)[Fuc(a1-4)]GlcNAc(b1-2)Man(a1-3)]Man(b1-4)GlcNAc(b1-4)GlcNAc
Procedure, shortened: as §1

[16] = target: Fuc(a1-2)Gal(b1-3)[Fuc(a1-4)]GlcNAc(b1-2)Man(a1-3)[Fuc(a1-2)Gal(b1-3)[Fuc(a1-4)]GlcNAc(b1-2)Man(a1-6)]Man(b1-4)GlcNAc(b1-4)[Fuc(a1-6)]GlcNAc(b1-4)[Fuc(a1-6)]GlcNAc
Procedure, shortened: as §1

[17] = target: Fuc(a1-2)Gal(b1-3)[Fuc(a1-4)]GlcNAc(b1-3)[Fuc(a1-3)[Gal(b1-4)]GlcNAc(b1-6)]Gal(b1-4)Glc
Procedure, shortened: as §1

[18] = target: Fuc(a1-2)Gal(b1-3)[Fuc(a1-4)]GlcNAc(b1-3)[Gal(b1-4)GlcNAc(b1-6)]Gal(b1-4)Glc
Procedure, shortened: as §1

[19] = target: Fuc(a1-2)Gal(b1-4)Fuc(a1-3)]GlcNAc(b1-2)Man(a1-3)[Fuc(a1-2)Gal(b1-4)[Fuc(a1-3)]GlcNAc(b1-2)Man(a1-6)]Man(b1-4)GlcNAc(b1-4)GlcNAc
Procedure, shortened: as §1

Fuc(a1-2)Gal(b1-4)Glc = target: Fuc(a1-2)Gal(b1-4)Glc
Procedure, shortened: as §1

Fuc(a1-2)Gal(b1-4)Glc6S = target: Fuc(a1-2)Gal(b1-4)Glc6S
Procedure, shortened: as §1

Fuc(a1-2)Gal(b1-4)GlcNAc = target: Fuc(a1-2)Gal(b1-4)GlcNAc
Procedure, shortened: as §1

[20] = target: Fuc(a1-2)Gal(b1-4)GlcNAc(b1-2)Man
Procedure, shortened: as §1

[21] = target: Fuc(a1-2)Gal(b1-4)GlcNAc(b1-2)Man(a1-3)[Fuc(a1-2)Gal(b1-4)GlcNAc(b1-2)Man(a1-6)]Man(b1-4)GlcNAc(b1-4)GlcNAc
Procedure, shortened: as §1

[22] = target: Fuc(a1-2)Gal(b1-4)GlcNAc(b1-2)Man(a1-3)[Fuc(a1-2)Gal(b1-4)GlcNAc(b1-2)Man(a1-6)]Man(b1-4)GlcNAc(b1-4)[Fuc(a1-6)]GlcNAc
Procedure, shortened: as §1

[23] = target: Fuc(a1-2)Gal(b1-4)GlcNAc(b1-2)[Fuc(a1-2)Gal(b1-4)GlcNAc(b1-4)]Man(a1-3)[Fuc(a1-2)Gal(b1-4)GlcNAc(b1-2)Man(a1-6)]Man(b1-4)GlcNAc(b1-4)GlcNAc
Procedure, shortened: as §1

[24] = target: Fuc(a1-2)Gal(b1-4)GlcNAc(b1-3)Gal(b1-4)GlcNAc
Procedure, shortened: as §1

B1: Als3-41 (Candida albicans) (protein)
chain: KTITGVFNSFNSLTWSNAATYNYKGPGTPTWNAVLGWSLDGTSASPGDTFTLNMPCVFKFTTSQTSVDLTAHGVKYATCQFQAGEEFMTFSTLTCTVSNTLTPSIKALGTVTLPLAFNVGGTGSSVDLEDSKCFTAGTNTVTFNDGGKKISINVDFERSNVDPKGYLTDSRVIPSLNKVSTLFVAPQCANGYTSGTMGFANTYGDVQIDCSNIHVGITKGLNDWNYPVSSESFSYTKTCSSNGIFITYKNVPAGYRPFVDAYISATDVNSYTLSYANEYTCAGGYWQRAPFTLRWTGYRNSDAGSNGIVIVATTRTVTDSTTAVTTLPFDPNRDKTKTIEILKPIPTTTITTSYVGVTTSYLTKTAPIGETATVIVD
glycan array binding signal (z-score) (Fuc(a1-2)Gal): 0.406
glycan array binding signal (z-score) (Fuc(a1-2)Gal(b1-3)GalNAc): -0.269
glycan array binding signal (z-score) [1]: -0.067
glycan array binding signal (z-score) [2]: -0.19
glycan array binding signal (z-score) [3]: 1.02
glycan array binding signal (z-score) [4]: -0.203
glycan array binding signal (z-score) [5]: -0.252
glycan array binding signal (z-score) (Fuc(a1-2)Gal(b1-3)GlcNAc): -0.256
glycan array binding signal (z-score) [6]: -0.316
glycan array binding signal (z-score) [7]: -0.306
glycan array binding signal (z-score) [8]: -0.317
glycan array binding signal (z-score) [9]: -0.032
glycan array binding signal (z-score) [10]: 0.384
glycan array binding signal (z-score) [11]: -0.335
glycan array binding signal (z-score) [12]: -0.337
glycan array binding signal (z-score) [13]: -0.224
glycan array binding signal (z-score) [14]: -0.293
glycan array binding signal (z-score) [15]: 0.017
glycan array binding signal (z-score) [16]: -0.071
glycan array binding signal (z-score) [17]: -0.276
glycan array binding signal (z-score) [18]: -0.322
glycan array binding signal (z-score) [19]: 0.678
glycan array binding signal (z-score) (Fuc(a1-2)Gal(b1-4)Glc): -0.271
glycan array binding signal (z-score) (Fuc(a1-2)Gal(b1-4)Glc6S): -0.195
glycan array binding signal (z-score) (Fuc(a1-2)Gal(b1-4)GlcNAc): -0.215
glycan array binding signal (z-score) [20]: -0.191
glycan array binding signal (z-score) [21]: -0.3
glycan array binding signal (z-score) [22]: -0.269
glycan array binding signal (z-score) [23]: -0.214
glycan array binding signal (z-score) [24]: -0.271
